# According to PubChem BioAssay (Tox21):
# Several values for one entry are separate records, joined by “and”; a condition that tells them apart may be missing. Equal entries are not always repeated. This list was built around the results that the source calls inconclusive (neither active nor inactive); the mix of calls is not that of the screen. For some of these results: Where the call is inconclusive, the potency comes from a doubtful curve fit. Some structures have more than one record in an assay (separate samples or runs), and their calls can disagree. Activity calls are given as the source filed them. Unless noted, calls come from the whole dose curve; as a rule, active = well fitted curve in the direction sought with a large enough effect in the repeat runs; inconclusive = weak or mixed curves; inactive = no such curve, though single readings can be large; an effect the other way counts as inactive or inconclusive.
# Tests used:
# [1] = qHTS assay to identify small molecule agonists of the hypoxia (HIF-1) signaling pathway (AID 1224846; active = well fitted activation curve with a large enough effect in the signal ratio in the repeat runs, not every such curve was filed as active; inconclusive = weak or mixed curves; the % refers to the signal ratio; note: potency is the fitted concentration of half-maximal effect; for activation: % is set by controls: 0 for no effect and ±100 for the full control effect); settings: HRE-bla ME-180 cells, beta-lactamase ratio, 17 h
# Outline: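 Measured by blue/green FRET after loading CCF4-AM: beta-lactamase expressed from a hypoxia response element in ME-180 cells. Test agents were delivered in DMSO and left 17 hrs; cells had been plated 5 hrs earlier in low-serum (0.5% dialyzed FBS) medium.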
# [2] = qHTS assay to identify small molecule agonists of H2AX - cell viability counter screen (AID 1224847; calls by dose curve; note: nearly all actives have a fitted effect of over 30% in size; note: potency is the fitted concentration of half-maximal effect); settings: CHO-K1 viability, CellTiter-Glo luminescence, 3 h; series mostly up to 154 µM
# Outline: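 Wild-type CHO-K1 cells (10% FBS medium) were plated overnight at 37C, exposed to compounds at 15 concentrations for 3 hr at 37C (0.76% DMSO final), and viability was read as CellTiter-Glo luminescence after 30 min at room temperature.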
# [3] = qHTS RealTime-Glo MT Cell Viability Assay in HepG2 cells - 24 hour (AID 1224867); settings: RealTime-Glo luminescence; series mostly up to 76.8 µM; note: potency is the fitted concentration of half-maximal effect; nearly all actives have a fitted effect of over 50% in size
# Outline: (§1)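 qHTS, HepG2, 600 cells/well, RealTime-Glo (NanoLuc + prosubstrate) added with cells; 5 h preincubation; DMSO compound addition; 37 C; luminescence at 0/8/16/24/32/40 h.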
# [4] = qHTS RealTime-Glo MT Cell Viability Assay in HepG2 cells - 40 hour (AID 1224870); settings: RealTime-Glo luminescence; series mostly up to 76.8 µM; note: potency is the fitted concentration of half-maximal effect; nearly all actives have a fitted effect of over 50% in size
# Outline: (§2)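 HepG2 cells (600/well) mixed with RealTime-Glo MT reagent, settled 5 h at 37 C/5% CO2 before compound addition. Nonlytic NanoLuc luminescence from viable-cell prosubstrate reduction read repeatedly during 40 h treatment at 37 C.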
# [5] = A CellTox Green Cytotoxicity Assay to monitor cytotoxicity in HEK293 cells - 40 hour (AID 1224871); settings: CellTox Green fluorescence; series mostly up to 76.8 µM; note: nearly all actives have a fitted effect of over 45% in size; note: potency is the fitted concentration of half-maximal effect
# Outline: (§3)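 Each value comes from one timepoint of a single continuous run in which HEK293 cells with CellTox Green were exposed to compound for up to 40 h at 37 C, dye fluorescence rising with cell death.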
# [6] = qHTS RealTime-Glo MT Cell Viability Assay in HepG2 cells - 32 hour (AID 1224877); settings: RealTime-Glo luminescence; series mostly up to 76.8 µM; note: potency is the fitted concentration of half-maximal effect; nearly all actives have a fitted effect of over 55% in size
# Outline: as §1
# [7] = A CellTox Green Cytotoxicity Assay to monitor cytotoxicity in HepG2 cells - 24 hour (AID 1224878); settings: CellTox Green fluorescence; series mostly up to 76.8 µM; note: % is set by controls: 0 for no effect and ±100 for the full control effect; nearly all actives have a fitted effect of over 45% in size
# Outline: (§4)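 Continuous culture of HepG2 cells with a membrane-impermeant DNA dye; rising fluorescence marks dead cells. Compound exposure lasted up to 40 h at 37 C, with reads every 8 h from 0 h.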
# [8] = A CellTox Green Cytotoxicity Assay to monitor cytotoxicity in HepG2 cells - 40 hour (AID 1224879); settings: CellTox Green fluorescence; series mostly up to 76.8 µM; note: potency is the fitted concentration of half-maximal effect; nearly all actives have a fitted effect of over 40% in size
# Outline: as §4
# [9] = qHTS RealTime-Glo MT Cell Viability Assay in HEK293 cells - 0 hour (AID 1224880); settings: RealTime-Glo luminescence; series mostly up to 76.8 µM; note: potency is the fitted concentration of half-maximal effect; nearly all actives have a fitted effect of over 45% in size
# Outline: (§5)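 qHTS format; HEK293 cells with NanoLuc/prosubstrate reagent, 37 C/5% CO2 for 5 h pre-dosing; compounds 23 nL in DMSO; luminescence at each time point reflects viable cells.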
# [10] = qHTS RealTime-Glo MT Cell Viability Assay in HEK293 cells - 32 hour (AID 1224868); settings: RealTime-Glo luminescence; series mostly up to 76.8 µM; note: potency is the fitted concentration of half-maximal effect; nearly all actives have a fitted effect of over 50% in size
# Outline: (§6)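 Assay medium contained NanoLuc luciferase plus cell-permeant prosubstrate, added with HEK293 cells at 600 cells/well. After 5 h at 37 C/5% CO2 compounds were added; plates stayed at 37 C for 40 h with serial luminescence reads.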
# [11] = qHTS RealTime-Glo MT Cell Viability Assay in HEK293 cells - 16 hour (AID 1224872); settings: RealTime-Glo luminescence; series mostly up to 76.8 µM; note: potency is the fitted concentration of half-maximal effect; nearly all actives have a fitted effect of over 50% in size
# Outline: as §6
# [12] = qHTS RealTime-Glo MT Cell Viability Assay in HEK293 cells - 40 hour (AID 1224874); settings: RealTime-Glo luminescence; max response: stronger effect = lower value
# Outline: as §5
# [13] = A CellTox Green Cytotoxicity Assay to monitor cytotoxicity in HepG2 cells - 16 hour (AID 1224876); settings: CellTox Green fluorescence; series mostly up to 76.8 µM; note: % is set by controls: 0 for no effect and ±100 for the full control effect; nearly all actives have a fitted effect of over 45% in size
# Outline: as §4
# [14] = qHTS assay to identify small molecule antagonists of the estrogen related receptor (ERR) signaling pathway from Tox21 library (AID 1224848); settings: ERR reporter cell line, luciferase antagonist mode, 18 h; series mostly up to 92.4 µM
# Outline: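 Luminescent reporter read-out (ONE-Glo) from NTP's ERR cell line after 18 h treatment at 37 C with DMSO-dissolved Tox21 compounds; cells pre-plated 6 h beforehand at 2,000 per well.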
# [15] = A CellTox Green Cytotoxicity Assay to monitor cytotoxicity in HEK293 cells - 32 hour (AID 1224881); settings: CellTox Green fluorescence; series mostly up to 76.8 µM; note: nearly all actives have a fitted effect of over 40% in size; note: potency is the fitted concentration of half-maximal effect
# Outline: as §3
# [16] = qHTS RealTime-Glo MT Cell Viability Assay in HepG2 cells - 8 hour (AID 1224873); settings: RealTime-Glo luminescence; series mostly up to 76.8 µM; note: potency is the fitted concentration of half-maximal effect; nearly all actives have a fitted effect of over 55% in size
# Outline: as §2
# [17] = A CellTox Green Cytotoxicity Assay to monitor cytotoxicity in HepG2 cells - 0 hour (AID 1224882); settings: CellTox Green fluorescence; series mostly up to 76.8 µM; note: potency is the fitted concentration of half-maximal effect; nearly all actives have a fitted effect of over 35% in size
# Outline: as §4
# [18] = activation: at 76.8 µM (top of the series) unless noted
# Tags give direction and shape of the fitted curve or compound fluorescence and quenching.
smiles,measurement,setting,value
NC(=O)N1C(=O)C(C(=O)c2cc(Cl)cs2)c2cc(F)c(Cl)cc21 (stereo not drawn),Potency,[1]; [18],inconclusive: 54.9 µM
same,Potency,[2],"inconclusive: 127 µM [cytotoxic, single point]"
same,Potency,[3],"inconclusive: 61.6 µM [falling, partial curve, poor fit]"
same,Potency,[4],"inconclusive: 54.9 µM [falling, single point]"
same,Potency,[5],inactive
same,Potency,[6],"inconclusive: 54.9 µM [cytotoxic, single point]"
same,Potency,[7],inactive
same,Potency,[8],"inconclusive: 54.9 µM [activator, single point]"
same,Potency,[9],"inconclusive: 54.9 µM [falling, partial curve, poor fit]"
Cc1ccc(C)cc1,Potency,[1]; [18],inactive
CC(C)CCCC(=O)O,Potency,[1]; [18],inactive
OC(Cn1cncn1)(Cn1cncn1)c1ccc(F)cc1F,Potency,[1]; [18],inactive
NC(CSCC(=O)O)C(=O)O (stereo not drawn),Potency,[1]; [18],inactive
Oc1c(Cl)cc(Cl)c(Cl)c1Cl,activation,[1]; [18],inconclusive: 1.88%
same,activation,[1]; at 76.8 µM (top of the series),inactive: 6.54%
same,Potency,[2],"inconclusive: 113 µM [cytotoxic, single point]"
same,Potency,[10],"inconclusive: 53.8 µM [cytotoxic, single point] and inconclusive: 61.7 µM [cytotoxic, single point]"
same,Potency,[11],"inconclusive: 53.8 µM [cytotoxic, single point] and inconclusive: 61.7 µM [cytotoxic, partial curve, poor fit]"
same,Potency,[12],"inconclusive: 53.8 µM [cytotoxic, single point] and inconclusive: 54.9 µM [cytotoxic, single point]"
CC(C)c1ccc(C(=O)N=C(N)N)cc1S(C)(=O)=O,Potency,[1]; [18],"inconclusive: 0.137 µM [falling, single point]"
[Cu+],Potency,[1]; [18],"inconclusive: 49 µM [rising, partial curve, poor fit]"
same,Potency,[2],"inconclusive: 127 µM [cytotoxic, single point]"
same,Potency,[3],"inconclusive: 49 µM [falling, partial curve, poor fit]"
same,Potency,[10],"inconclusive: 54.9 µM [rising, single point]"
same,Potency,[4],active: 34.7 µM
same,Potency,[12],"inconclusive: 54.9 µM [rising, single point]"
same,Potency,[13],inactive
CCCCCCCCCCCSCC(=O)O,Potency,[1]; [18],inactive
same,Potency,[2],inactive
same,Potency,[14],"inconclusive: 38.6 µM [inhibitor, partial curve, poor fit]"
same,Potency,[15],inactive
CCCCOCCOC(=O)c1cccnc1,Potency,[1]; [18],inactive
COCCOC(=O)C1=C(C)NC(C)=C(C(=O)OC/C=C/c2ccccc2)C1c1cccc([N+](=O)[O-])c1 (stereo not drawn),Potency,[1]; [18],"inconclusive: 16.9 µM [falling, partial curve]"
same,Potency,[2],"inconclusive: 0.196 µM [cytotoxic, full curve, poor fit]"
same,Potency,[14],active: 7.5 µM
same,Potency,[3],"inconclusive: 13.4 µM [falling, partial curve]"
same,Potency,[10],"inconclusive: 23.9 µM [cytotoxic, partial curve, poor fit]"
same,Potency,[16],"inconclusive: 21.3 µM [falling, partial curve]"
same,Potency,[12],"inconclusive: 23.9 µM [cytotoxic, partial curve]"
same,Potency,[6],"inconclusive: 15.1 µM [cytotoxic, partial curve]"
same,Potency,[9],active: 5.35 µM
CCCCCCCCC1CO1 (stereo not drawn),Potency,[1]; [18],inactive
Cc1ccc(S(=O)(=O)O)cc1C,Potency,[1]; [18],inactive
NS(=O)(=O)c1ccc(NC(=O)CCC(=O)O)cc1,Potency,[1]; [18],inactive
COc1cc([C@H]2Oc3cc([C@H]4Oc5cc(O)cc(O)c5C(=O)[C@@H]4O)ccc3O[C@@H]2CO)ccc1O,Potency,[1]; [18],inactive
same,Potency,[2],"inconclusive: 20 µM [rising, partial curve, poor fit]"
same,Potency,[14],"inconclusive: 76.7 µM [inhibitor, partial curve, poor fit]"
same,Potency,[10],"inconclusive: 38.8 µM [cytotoxic, partial curve]"
same,Potency,[5],active: 16.9 µM
same,Potency,[11],"inconclusive: 34.6 µM [cytotoxic, partial curve]"
same,Potency,[16],"inconclusive: 48.8 µM [falling, partial curve, poor fit]"
same,Potency,[12],"inconclusive: 38.8 µM [cytotoxic, partial curve]"
same,Potency,[15],active: 15.1 µM
same,Potency,[17],active: 21.3 µM
CC1CCCO1 (stereo not drawn),Potency,[1]; [18],inactive
C=CCCCCCCCCCCCCCCCC,activation,[1]; [18],inactive: 0.0723% [at 7.01 µM]
CCCCCCCC/C=C\CCCCCCCC(=O)OC[C@@H](O)[C@H]1OC[C@H](O)[C@H]1O,Potency,[1]; [18],inactive
same,Potency,[2],inactive
